Assay results: US6541195B2, “Correction of genetic defects using chemical chaperones” (The Regents of the University of California, priority 1996, dated 2003)
Like-named read-outs stand apart in the source and are kept apart here.

System: temperature sensitive mutant of the E1 enzyme (ts20 cells)
[1] = 39.5° C., two days, 100% D2O, 75 mM TMAO, 0.75 M glycerol

| Structure (SMILES) | cell proliferation (cell number) (39.5° C., 1, 2 or 3 days) | apparent growth rate (phase-contrast microscopy) [1] | cell morphology (phase-contrast microscopy) [1] | apparent growth rate (phase-contrast microscopy) | cell morphology (phase-contrast microscopy) | cell proliferation (cell number) |
| --- | --- | --- | --- | --- | --- | --- |
| [2H]O[2H] [deuterated water] | failed to exhibit any significant growth | only slightly higher | intermediate phenotype | – | – | – |
| C[N+](C)(C)[O-] [TMAO, trimethylamine N-oxide] | – | – | – | normal growth rates | well-rounded morphology | recovery of cell proliferation |
| OCC(O)CO [glycerol] | recovery of cell proliferation | normal growth rates | well-rounded morphology | – | – | – |
